{"source": "paper PMC4336329", "about": "(PLoS ONE, 2015)", "note": "Out of some 310,000 compounds screened, about 2,200 (0.71%) showed an effect of 50% or more. Effects have a minus sign here. The list shows a part of the results.", "data": [{"molecular_target": "human ether-à-go-go-related gene (hERG) potassium channel (human, UniProt Q12809)", "sequence (Q12809 whole entry, looked up)": "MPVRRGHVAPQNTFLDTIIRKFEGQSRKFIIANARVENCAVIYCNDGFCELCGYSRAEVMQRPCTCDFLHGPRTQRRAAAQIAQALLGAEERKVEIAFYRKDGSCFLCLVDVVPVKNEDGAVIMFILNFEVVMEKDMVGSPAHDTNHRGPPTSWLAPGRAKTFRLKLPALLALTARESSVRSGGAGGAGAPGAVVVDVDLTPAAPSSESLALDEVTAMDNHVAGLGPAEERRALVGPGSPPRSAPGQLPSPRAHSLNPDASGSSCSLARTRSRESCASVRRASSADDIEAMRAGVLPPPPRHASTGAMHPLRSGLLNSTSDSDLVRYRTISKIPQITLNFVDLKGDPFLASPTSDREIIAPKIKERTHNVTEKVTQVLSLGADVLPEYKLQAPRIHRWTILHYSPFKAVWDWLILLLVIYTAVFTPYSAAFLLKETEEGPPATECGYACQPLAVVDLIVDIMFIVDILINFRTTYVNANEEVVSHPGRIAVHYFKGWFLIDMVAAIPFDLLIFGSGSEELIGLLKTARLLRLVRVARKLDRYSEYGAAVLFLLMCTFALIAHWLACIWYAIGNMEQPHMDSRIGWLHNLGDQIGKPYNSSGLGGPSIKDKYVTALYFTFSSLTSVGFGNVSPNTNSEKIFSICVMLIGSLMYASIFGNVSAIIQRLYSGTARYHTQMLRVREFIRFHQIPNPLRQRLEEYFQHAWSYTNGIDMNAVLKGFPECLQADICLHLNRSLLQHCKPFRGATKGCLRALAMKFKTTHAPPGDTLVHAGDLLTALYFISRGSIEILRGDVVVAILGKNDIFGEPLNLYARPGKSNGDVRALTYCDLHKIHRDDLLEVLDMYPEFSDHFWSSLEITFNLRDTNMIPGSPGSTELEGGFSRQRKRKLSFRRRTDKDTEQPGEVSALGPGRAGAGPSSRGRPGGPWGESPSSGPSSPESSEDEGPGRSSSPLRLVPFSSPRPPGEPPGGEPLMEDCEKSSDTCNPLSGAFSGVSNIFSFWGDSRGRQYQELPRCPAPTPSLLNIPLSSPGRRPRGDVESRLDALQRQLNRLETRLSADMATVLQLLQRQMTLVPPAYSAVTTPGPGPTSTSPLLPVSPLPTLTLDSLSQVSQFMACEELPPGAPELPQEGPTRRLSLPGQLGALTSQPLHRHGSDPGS", "test": "primary screen, population patch clamp on CHO cells stably expressing hERG", "units": {"hERG current change (%, negative = inhibition) at 1uM": "%"}, "values": [{"smiles": "Oc1ccc(N=Cc2sc3ccccc3c2Cl)cc1", "hERG current change (%, negative = inhibition) at 1uM": 6.22}, {"smiles": "CC(=O)Nc1ccc(S(C)(=O)=O)c(C)c1", "hERG current change (%, negative = inhibition) at 1uM": 8.97}, {"smiles": "CCOc1ccccc1NC(=O)c1ccoc1C", "hERG current change (%, negative = inhibition) at 1uM": 15.3}, {"smiles": "COc1cc2c(cc1OC)CN(CC(=O)Nc1ccc(F)cc1)CC2", "hERG current change (%, negative = inhibition) at 1uM": 17.5}, {"smiles": "Cc1ccccc1CN1C(=O)c2ccccc2Sc2ccc(C(=O)NCCN3CCOCC3)cc21", "hERG current change (%, negative = inhibition) at 1uM": 1.33}, {"smiles": "COc1ccc(CN(CC(=O)NCc2ccccc2)C(=O)CCC(=O)Nc2nccs2)cc1", "hERG current change (%, negative = inhibition) at 1uM": 10.1}, {"smiles": "CC(C)C[C@H](NC(=O)NC(C)C)C(=O)O", "hERG current change (%, negative = inhibition) at 1uM": 8.86}, {"smiles": "Cc1cc(NC(=S)NC(=O)c2ccco2)c2ccccc2n1", "hERG current change (%, negative = inhibition) at 1uM": 4.69}, {"smiles": "CCOC(=O)NCc1ccc(S(=O)(=O)Nc2c(C)cccc2C)cc1", "hERG current change (%, negative = inhibition) at 1uM": 2.11}, {"smiles": "CCN(C(=O)COC(=O)CNC(=O)c1ccccc1C)C1=CCCCC1", "hERG current change (%, negative = inhibition) at 1uM": -3.57}, {"smiles": "CC(C)(C)OC(=O)NCCCCc1cn(CC(=O)N2CCN(C(=O)OC(C)(C)C)CC2)nn1", "hERG current change (%, negative = inhibition) at 1uM": 22}, {"smiles": "CCOCCOc1nc(C)cc(C)c1S(=O)(=O)c1ccccc1C", "hERG current change (%, negative = inhibition) at 1uM": 8.99}, {"smiles": "Cc1onc(C(=O)NCc2ccccn2)c1[N+](=O)[O-]", "hERG current change (%, negative = inhibition) at 1uM": 2.22}, {"smiles": "Cl.OC(CNC1CCCC1)COc1ccc(F)cc1", "note": "(stereo not drawn)", "hERG current change (%, negative = inhibition) at 1uM": 12.9}, {"smiles": "CC(C)CCNC(=O)C1CCCN(S(=O)(=O)c2ccc3c(c2)CC(C)N3C(=O)C2CC2)C1", "note": "(stereo not drawn)", "hERG current change (%, negative = inhibition) at 1uM": 7.79}, {"smiles": "COc1ccc(C(=O)NCc2ccc(-n3cccc3)cc2)cc1OC", "hERG current change (%, negative = inhibition) at 1uM": 8.11}, {"smiles": "Cc1ccc(NC(=O)CSc2nnc(C)c(=O)n2N)cc1", "hERG current change (%, negative = inhibition) at 1uM": 4.1}, {"smiles": "O=C(O)CCC(=O)N1CCN(Cc2ccc3c(c2)OCO3)CC1", "hERG current change (%, negative = inhibition) at 1uM": 12.1}, {"smiles": "Cc1nn(CCN)c(C)c1Cl.Cl", "hERG current change (%, negative = inhibition) at 1uM": 15.4}, {"smiles": "COC(=O)c1ccccc1N(C)S(=O)(=O)c1cc2c3c(c1)CCC(=O)N3CCC2", "hERG current change (%, negative = inhibition) at 1uM": 6.71}, {"smiles": "Cc1cc(C(=O)CSc2nc3ccc(Cl)cc3[nH]2)c(C)n1C", "hERG current change (%, negative = inhibition) at 1uM": -1.02}, {"smiles": "CN(C(=O)CCCN1C(=O)c2cccc3cccc(c23)C1=O)c1ccccc1", "hERG current change (%, negative = inhibition) at 1uM": -0.109}, {"smiles": "Fc1ccccc1CSc1nnc2ccc(-c3ccncc3)nn12", "hERG current change (%, negative = inhibition) at 1uM": -6.98}, {"smiles": "Cc1cccnc1NC(=O)c1cccc(S(=O)(=O)NCc2ccccc2)c1", "hERG current change (%, negative = inhibition) at 1uM": 7.71}, {"smiles": "CCC(Oc1ccccc1)C(=O)Nc1ccc(S(=O)(=O)N2CCOCC2)cc1", "note": "(stereo not drawn)", "hERG current change (%, negative = inhibition) at 1uM": -5.24}, {"smiles": "Cc1ccc(-c2cc(C(=O)Nc3c(C)n(C)n(-c4ccccc4)c3=O)[nH]n2)c(O)c1", "hERG current change (%, negative = inhibition) at 1uM": 9.11}, {"smiles": "CC(NC(=O)NNC(=O)c1ccncc1)(C(F)(F)F)C(F)(F)F", "hERG current change (%, negative = inhibition) at 1uM": 3.04}, {"smiles": "Cc1ccc(-c2nn(C)c(=O)c3ccccc23)cc1CO", "hERG current change (%, negative = inhibition) at 1uM": -4.77}, {"smiles": "C=CCSc1nc2sc3c(c2c(=O)n1CC=C)CCc1ccccc1-3", "hERG current change (%, negative = inhibition) at 1uM": 9.88}, {"smiles": "COc1ccc(C(=O)NC2CC2)cc1OC1CCN(Cc2ccccc2)CC1", "hERG current change (%, negative = inhibition) at 1uM": -82.9}, {"smiles": "N#C/C(=C\\c1ccccc1OCc1ccc(C(=O)O)cc1)c1ccccc1", "hERG current change (%, negative = inhibition) at 1uM": 16}, {"smiles": "COc1ccc(Nc2nc(Nc3ccc(OC)cc3)nc(-n3[nH]c(=O)c(C)c3C)n2)cc1", "hERG current change (%, negative = inhibition) at 1uM": 1.67}, {"smiles": "COC(=O)C(CCSC)NC(=O)Cn1ncc2c(=O)oc3ccccc3c21", "note": "(stereo not drawn)", "hERG current change (%, negative = inhibition) at 1uM": 12.5}, {"smiles": "O=C(Nc1ccc2c(c1)OCO2)C1CC(c2ccccc2Cl)=NO1", "note": "(stereo not drawn)", "hERG current change (%, negative = inhibition) at 1uM": 4.56}, {"smiles": "O=C(NCCN1CCOCC1)c1ccc(CS(=O)c2ccccc2Cl)o1", "note": "(stereo not drawn)", "hERG current change (%, negative = inhibition) at 1uM": 0.419}, {"smiles": "O=C1C2CCCN2C(=S)N1c1ccc(Cl)cc1", "note": "(stereo not drawn)", "hERG current change (%, negative = inhibition) at 1uM": 16}, {"smiles": "Cc1ccccc1NC(=S)NCC1CCC(CNC(=S)Nc2ccccc2C)CC1", "note": "(stereo not drawn)", "hERG current change (%, negative = inhibition) at 1uM": 11.7}, {"smiles": "Fc1ccc(OCCCCCCN2CCCC2)cc1", "hERG current change (%, negative = inhibition) at 1uM": 2.64}, {"smiles": "O=C(CCNC(=O)c1ccc(Br)cc1)NCC1COc2ccccc2O1", "note": "(stereo not drawn)", "hERG current change (%, negative = inhibition) at 1uM": 2.19}, {"smiles": "CC(C)(C)S(=O)(=O)Cc1nc(-c2ccc(Cl)c(Cl)c2)cs1", "hERG current change (%, negative = inhibition) at 1uM": 6.76}, {"smiles": "CCOC(=O)N1CCc2c(sc(N)c2C#N)C1", "hERG current change (%, negative = inhibition) at 1uM": 5.15}, {"smiles": "CCn1nnnc1NCc1ccc(OCc2ccc(F)cc2Cl)c(OC)c1", "hERG current change (%, negative = inhibition) at 1uM": -1.14}, {"smiles": "O=c1c2ccccc2n(Cc2ccc(F)cc2)c(=O)n1C1CCCC1", "hERG current change (%, negative = inhibition) at 1uM": 8.77}, {"smiles": "COc1cccc(NC(=O)CN(C)C(=O)CSC(=S)N2CCCC2)c1", "hERG current change (%, negative = inhibition) at 1uM": 7.3}, {"smiles": "O=C(Cc1ccc(Cl)cc1)N1CCN(c2ccccc2)CC1", "hERG current change (%, negative = inhibition) at 1uM": 6.04}, {"smiles": "CCCn1c(O)c(N=NC(=O)CNC(=O)Cc2ccc(OC)cc2)c2ccccc21", "hERG current change (%, negative = inhibition) at 1uM": 11.7}, {"smiles": "CCOC(=O)c1cc(-c2ccc3c(c2)OCCO3)nc2c1c(C)nn2CCC#N", "hERG current change (%, negative = inhibition) at 1uM": 11.3}, {"smiles": "CCOc1ccc(-c2cc(C(=O)NN3CCN(C)CC3)c3cc(Cl)ccc3n2)cc1", "hERG current change (%, negative = inhibition) at 1uM": 14.5}, {"smiles": "O=C(Cn1cnc2ccccc2c1=O)NCC1COc2ccccc2O1", "note": "(stereo not drawn)", "hERG current change (%, negative = inhibition) at 1uM": 8.63}, {"smiles": "CC(=O)c1ccc(Nc2cc(C)nc3c(C)cc(C)cc23)cc1", "hERG current change (%, negative = inhibition) at 1uM": -9.86}, {"smiles": "O=c1c2c(nc3cc(-c4ccc(Br)cc4)[nH]n13)CCCC2", "hERG current change (%, negative = inhibition) at 1uM": 6.16}, {"smiles": "CC1=C(C(=O)OC(C)C)C(c2cccc([N+](=O)[O-])c2)n2c(cc(=O)[nH]c2=S)N1", "note": "(stereo not drawn)", "hERG current change (%, negative = inhibition) at 1uM": 10.2}, {"smiles": "CC(C)n1cc(/C=C2/SC(=O)N(CC(=O)N3CCCC3)C2=O)c2ccccc21", "hERG current change (%, negative = inhibition) at 1uM": 11.2}, {"smiles": "Cc1cccn2cc(CCNS(=O)(=O)c3ccc([N+](=O)[O-])cc3)nc12", "hERG current change (%, negative = inhibition) at 1uM": -2.22}, {"smiles": "CCOC(=O)c1c(N2C(=O)C3C4C=CC(C4)C3C2=O)sc2c1CCC(C)C2", "note": "(stereo not drawn)", "hERG current change (%, negative = inhibition) at 1uM": 11.9}, {"smiles": "COc1ccc(CCN2C(=S)N(c3ccccc3)C(=O)C2CC(=O)O)cc1OC", "note": "(stereo not drawn)", "hERG current change (%, negative = inhibition) at 1uM": 13.4}, {"smiles": "CCOC(=O)c1sc(NC(=O)CNCc2ccccn2)c(C(=O)OCC)c1C", "hERG current change (%, negative = inhibition) at 1uM": 11.1}]}]}
